Results: the supplement of paper PMC11417369
± gives the standard deviation of the averaged measurements. The list shows a part of the results.

tested on: PfAP2-LT AP2 domain (GST-tagged); assay: gcPBM binding intensity (ln(normalized median fluorescence intensity)); higher = stronger DNA binding
Method in brief: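 GST-fused DNA-binding domains of P. falciparum, expressed in E. coli, were applied at about 25 μg on average for 1 h to an Agilent 4 × 180k array of primer-extended double-stranded 36-bp intergenic genomic probes and negative controls. Binding intensity is the highest Masliner-normalised natural-log median intensity across replicate spots of either probe orientation, measured with Alexa488 anti-GST antibody and a 488 nm scan.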

Sequence	gcPBM binding intensity (ln)
TAAATATTATTATATACATGCACTTACAACTTTTTT [TGCATGCA_site877]	8.79 ± 0.54
AAATCACATAAAACATAATCAAATGAAATATAATCA [CACACA_negctrl_site123]	8.85 ± 0.42
ACTGTAAATTTATTCGGTACACATATAAATAATATT [XGTACX_site7346]	8.73 ± 0.48
TTAATGGCAAAATAGGCACACACACCGATACATATA [CACACA_site8263]	9.62 ± 0.4
ACAGTAGCCAGTAACTGTACGGATTGTAGAGATCAG [XGTACX_site4873]	8.98 ± 0.49
ATAATATTTAGGTGTGCACACAAACATACATATATA [CACACA_site9120]	9.62 ± 0.42
ATTATTTTTAAAAATTGTACAGTATAAGAGAGAAAT [XGTACX_site7094]	8.62 ± 0.35
TATTGTAAAAAGATTACACACGTTCTATATACTTTT [CACACA_site5379]	8.93 ± 0.44
AATAAAAAAATATATTGTACTAATAATTATATGTTT [XGTACX_site2246]	8.53 ± 0.46
CCAACATGCAGACGCACACACAAAAAAAGCATGCAT [CACACA_site74]	9.54 ± 0.4
AATAATATATATATTACACACTAATTGTATTATATA [CACACA_site448]	8.79 ± 0.4
TAACAATATCTAGATACACACACATATCTCTCAATC [CACACA_site8122]	9.27 ± 0.3
TTAATACCCGGACACACACACACAAAATAAAATACA [CACACA_site4296]	9.85 ± 0.27
ATTTATTTATTTAGCTGTACATTTATACAGAACGAT [XGTACX_site3336]	8.61 ± 0.34
AAAATGAATAAAAATACACACATATATGTTATTCTC [CACACA_site2671]	9.03 ± 0.42
AAATTGAGACAACAGGTGCATATAAATATACAGTGT [GTGCAC_site9634]	9.18 ± 0.44
AATAAAAATTCAAGTTGTACTTTTTTAAAAATACAA [XGTACX_site3949]	8.23 ± 0.59
AATTTTTGTTACAAGATGCACTTAATTTTTCTAAAT	8.51 ± 0.42
TATTCATTAAACCATACACACATAATTTTTTTATAA [CACACA_site4618]	8.71 ± 0.35
ATATATTATATAAAAAGTACTAAAATAGTAAGATGT [XGTACX_site7493]	9.14 ± 0.53
AATGATTTTAAATGAACATAATTTATATTCATAACA [GTGCAC_negctrl_site256]	8.27 ± 0.47
GTGTGCCAAATTAGCACACACATATATACATGAATT [CACACA_site7346]	9.74 ± 0.29

Sequence	gcPBM binding intensity (ln)
TACCAAAAAAAAAAAATAATAATAAAAAAAAAAAAA [TGCATGCA_negctrl_site11]	8.28 ± 0.51
AACGAAGCATAAAATGTTATGTATATATATAAATAT [TGCATGCA_negctrl_site304]	8.91 ± 0.49
ATCATTTTGTGTTCAAGTACATAATGTTTTACACAA [XGTACX_site3565]	8.91 ± 0.3
CATACATTATAAGATACATGCATATATCTGAACATA [TGCATGCA_site797]	8.88 ± 0.46
ATGTGGAAATAGAGCACACATATATATAATATATAT [CACACA_site884]	9.2 ± 0.39
GCAAAACATTTTTAAAATAAAAATAATAAAATATAT [CACACA_negctrl_site219]	8.49 ± 0.45
ACATTGAACAAAATAGTAAGCACATATATATATATA [GTGCAC_negctrl_site679]	9.69 ± 0.39
TGATTCATTGATAAGGGTACATTTATAATTATGATA [XGTACX_site6319]	8.48 ± 0.34
ACGTATCAATTTATTGGTACACATAAATATATATAT [XGTACX_site5556]	8.83 ± 0.35
ACACATAATATAAAGGTGCTATATTGTATTCATTTT [GTGCAC_site9457]	8.95 ± 0.47
TGCAAAAAAAAAAAAAAAAAATATATGGAAATATAT [GTGCAC_negctrl_site257]	8.41 ± 0.5
AAACATATATTAAGCACACACAAACAAAAAAACAAA [CACACA_site2549]	9.59 ± 0.61
TTTTCATACACTGCTAGTATATACTACCACTGACAT [GTGCAC_negctrl_site514]	9.06 ± 0.41
TGTTTGAATATAATCACACATTTATATAAAAAGTTA [CACACA_site5237]	8.39 ± 0.32
TCTTTTTGCATGTGTGTGCGCACAAAATACACAAAA [GTGCAC_site9718]	9.39 ± 0.3
AAAATATAGTAACACATACACACATATATATTTATA [CACACA_site2504]	9.19 ± 0.38
AAATTGAAATATTCCTGTACACATTTTGAAAACTTA [XGTACX_site6101]	8.45 ± 0.43
TTGTTATGTTTTATTTGTACGTAGGTTTCTATCAAA [XGTACX_site7636]	8.79 ± 0.52
TATTAAACTAAATGTAGTACATACACAAAAGAAACC [XGTACX_site606]	9.06 ± 0.34
AAAAAATATAAATATGTAAAAAGAGAAAAAAAAAAG [GTGCAC_negctrl_site9]	8.63 ± 0.57
TATAAACATAAAACCAGTACATATATATTTTTCTTC [XGTACX_site212]	8.71 ± 0.45
ATATTTAATTCATCATGTACACAAATAAGAAACAAA [XGTACX_site8076]	8.79 ± 0.48

Sequence	gcPBM binding intensity (ln)
TGAAAATGGGAACCGTGTACAGGGCAGTTATAGGGG [XGTACX_site2950]	9.29 ± 0.23
TTATGAAAATATTTTTTTCGTTTGATGTATATGTTT [CACACA_negctrl_site1556]	8.7 ± 0.57
TAAAAAATTAAGCAACGTACAAATGAAAAGTATAAT [XGTACX_site1058]	9.04 ± 0.53
TGATAACCAAAAAGGGGTACATACACAAAAAAATAC [XGTACX_site1254]	9.14 ± 0.56
TACTTATTAGACTATTGTACATACATTATTAATATT [XGTACX_site7849]	8.86 ± 0.42
AACAACATTTGATAAACACACAGAAGTATAAATATA [CACACA_site5327]	9.04 ± 0.47
TACGTATTATAAATATGTACATATAATATGTATATA [XGTACX_site468]	8.66 ± 0.4
TATATCATCATGTATGTACACACATACATATATTAT [CACACA_site8387]	9.21 ± 0.33
ATAACAAAATAATAATGTACGTATAAATATAATTTA [XGTACX_site6049]	8.93 ± 0.38
AACAATAAAAATAATTGTACAAGTCTAAAAAAAATT [XGTACX_site20]	8.79 ± 0.55
ATAAAGAAAAATAGAAGTACATATATGCATGTTAAT [XGTACX_site4480]	9.12 ± 0.35
CAAAAACATACCTACACACACAATATGTATATATAA [CACACA_site3514]	9.59 ± 0.26
TAACAATAACTTTATACACACATAATATAAATATAT [CACACA_site7635]	8.89 ± 0.42
AAATCATATTCTTATTTTATTTTTTTTATTTTTTAT [XGTACX_negctrl_site166]	8.59 ± 0.54
GTTATATGAACTTATATACACACCATTTTTGTAAAT [CACACA_site695]	8.88 ± 0.4
TGTAGATATTTTTGGGGTACTTTATAAAGAACTAGT [XGTACX_site5635]	8.5 ± 0.21
AAAAAAAAAAAAAAAAGTACACATAATTGTATATGT [XGTACX_site6339]	8.67 ± 0.35
TTACATATATTGGGGTGTACATATATTTTCCTTCAC [XGTACX_site6224]	9.06 ± 0.51
ATGAAAAAGTGCTGGATTCTAAAGAAAAAAAAAAAA [CACACA_negctrl_site962]	8.54 ± 0.57
AAATATTGTTTTTTATGTACTTATTTTTATTTATTT [XGTACX_site3481]	8.87 ± 0.47
ATAAAATCAACAAATCAGGATGTCACGTAAATATCA [CACACA_negctrl_site1009]	9.14 ± 0.4
ATATTTTATATATTTGTGCACAATATTATAATATAT	8.95 ± 0.32

Sequence	gcPBM binding intensity (ln)
GAAAAACAAATATATTAACACACAAACATATAAACA [CACACA_site9315]	9.2 ± 0.39
GTTTATTTTTTCATTTGTACACATAAATAAATATAT [XGTACX_site7752]	8.82 ± 0.47
GGTATATATTCTATCACACATATTTCCATGAAAATA [CACACA_site4728]	8.74 ± 0.3
TTAATTATATTATGCACACACAATTGGAAAAAAAAT [CACACA_site1958]	9.18 ± 0.47
TATTTAGAAATAAATACACACATACATTTTTGTATA [CACACA_site4557]	8.74 ± 0.42
AAAAAAAAGAAAAAAACACACAATGGAAAAAATGTA [CACACA_site3675]	8.93 ± 0.59
AAAAATATGCTTCCATGTACTTAAAAAAAAAATTTA [XGTACX_site3617]	8.34 ± 0.47
ACGTTAGGCTTATTTGCACACTTGTATTAAAATTTT [CACACA_site4854]	8.97 ± 0.49
TCAACTTGATTTATATGTACACATATAAGTAATTAT [XGTACX_site1798]	8.63 ± 0.41
AAAAAAAATTTTCTTCTGTTGTATTTTTTATACGTT [GTGCAC_negctrl_site477]	8.74 ± 0.51
TATACAAACTATGATGCACACATATATATATGTATA [CACACA_site8327]	9.12 ± 0.3
TATATATAATATTTTTCACACACCATTTCCTTAAAC [CACACA_site1341]	9.04 ± 0.29
TGTATCTATAATAAAACACACATTTTTAATGTGCTC [CACACA_site6788]	8.78 ± 0.39
TTTTTTTTTTTTTTTTGTACATAATAAATGTTCTTA [XGTACX_site6754]	8.46 ± 0.38
TACAAAAATATATAAACACACAAATATAATATATAT [CACACA_site2942]	9.02 ± 0.46
ATAAATCAAATGCACACACACAAAAAAAAAAAAAAA [CACACA_site6221]	9.65 ± 0.54
CGCTCTCTTTAATATTGTACATATATATTATATATA [XGTACX_site7017]	8.84 ± 0.43
TAATAAATGACAAATTAACACACATATATTATATAT [CACACA_site9294]	8.98 ± 0.36
TTATACGAAGTACGTACACACACTTATATGTTACTA [CACACA_site4019]	9.29 ± 0.45
AATAAATAGAAAGAGGTGCTACATTATATTATTTAT	8.68 ± 0.45
TATTTTGTATTCATTTGTCACATATAATAGATAGGA [TGCATGCA_negctrl_site9]	8.49 ± 0.38
AATATATGTATATCCACACACATATATATATATATA [CACACA_site1633]	9.98 ± 0.071
